{"source": "the supplement of paper PMC11417369", "note": "The list shows a part of the results."}
{"test_system": "PfHDP1 homeodomain (GST-tagged)", "assay": "gcPBM binding intensity (ln(normalized median fluorescence intensity)); higher = stronger DNA binding", "method_in_brief": "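Binding intensity values are the highest Masliner-normalised natural-log median intensity among replicate spots of either probe orientation. The binding step lasted 1 h in 1× PBS with 1% milk, 0.2 mg/ml BSA, 0.5% salmon testes DNA and 0.03% Triton X-100, using GST-tagged P. falciparum DNA-binding domains expressed in E. coli on an Agilent 4 × 180k array of primer-extended double-stranded 36-bp intergenic genomic probes plus negative controls. Alexa488 anti-GST antibody and a 488 nm scan detected bound protein.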"}
{"sequence": "ACCATTTGTACTTACGCACACATAAAATATATATAT [CACACA_site1545]", "gcPBM binding intensity (ln)": 8.06}
{"sequence": "TCAAAAATTTATATAGTGCAATATATATATAATGTA", "gcPBM binding intensity (ln)": 9.93}
{"sequence": "TGTGGCCCTGCGAGGTGGTCATCATGAATACGAAAA [XGTACX_site1526]", "gcPBM binding intensity (ln)": 5.74}
{"sequence": "AACCAGTTGATGTGTACACATATAGTAATAATTTTA [CACACA_site5564]", "gcPBM binding intensity (ln)": 7.35}
{"sequence": "GTATTAATTTTAAGGTGTACGCAAAAAATTTAATTT [XGTACX_site718]", "gcPBM binding intensity (ln)": 6.46}
{"sequence": "ATATATTTTTTTTATACATGCAATGCATTTACGTTG [TGCATGCA_site565]", "gcPBM binding intensity (ln)": 7.15}
{"sequence": "TTTTTTTTTTTTTGAACACACATTATTAATTTTTAT [CACACA_site308]", "gcPBM binding intensity (ln)": 6.3}
{"sequence": "TTTTTTATATATTAGGAATTTATAAAATTAGAAGGT [GTGCAC_negctrl_site617]", "gcPBM binding intensity (ln)": 7.61}
{"sequence": "AACCAATATGCGTATACACACATAAATATAAATATA [CACACA_site3780]", "gcPBM binding intensity (ln)": 6.67}
{"sequence": "AATAGAATAATCCTTACACACACACCCACACGAATA [CACACA_site8053]", "gcPBM binding intensity (ln)": 7.05}
{"sequence": "TGTATAAAAAGAAAAAATCGTATGTGTTATCAAAAA [GTGCAC_negctrl_site490]", "gcPBM binding intensity (ln)": 6.32}
{"sequence": "ACGATTCAAAGGGAATATAAAATATTATTATCTATA [CACACA_negctrl_site1739]", "gcPBM binding intensity (ln)": 6.06}
{"sequence": "AAAAAAAAAAAAAAAAAAAAAAAAAAAAATAAAAAA [CACACA_negctrl_site59]", "gcPBM binding intensity (ln)": 6.93}
{"sequence": "AAAATATTTAATAGAAGTACACATGTATATATACAT [XGTACX_site8942]", "gcPBM binding intensity (ln)": 6.35}
{"sequence": "TATATTAACAAAATGGTGCAATAATTTCTATATTGT [GTGCAC_site9430]", "gcPBM binding intensity (ln)": 10.4}
{"sequence": "TGTGTAAGCACATACAAACACACAACCTTATTTTTA [CACACA_site2187]", "gcPBM binding intensity (ln)": 6.47}
{"sequence": "TTATTATATTAAAAGAGGACACATTTATTTTTTTTT [XGTACX_site1241]", "gcPBM binding intensity (ln)": 5.87}
{"sequence": "ATATATATATATATATGTACATAATATATTATATAT [XGTACX_site924]", "gcPBM binding intensity (ln)": 9.25}
{"sequence": "TTATTATATACAAAATGTACACAGAATAATTTGAAT [XGTACX_site2314]", "gcPBM binding intensity (ln)": 6.21}
{"sequence": "TTTTTTTTTTTTTTGGTGCAGTTCACATATTATATA [GTGCAC_site9996]", "gcPBM binding intensity (ln)": 7.51}
{"sequence": "AGATCATAATATTATACACACATTATATATCTGTAA [CACACA_site4925]", "gcPBM binding intensity (ln)": 6.85}
{"sequence": "TAATAAATTCAAAACATAAAAAGGAAAAAAAAAAAA [CACACA_negctrl_site1330]", "gcPBM binding intensity (ln)": 6.04}
{"sequence": "TGAATACAGATATTCACACAAATAGTTTTGATATAT [CACACA_site5527]", "gcPBM binding intensity (ln)": 6.14}
{"sequence": "TAATATCTTGAGTCATCACACATTGATTAATGAATC [CACACA_site5735]", "gcPBM binding intensity (ln)": 5.88}
{"sequence": "AAAAAAATATATAATAGTACATATATAGGAATATAT [XGTACX_site4591]", "gcPBM binding intensity (ln)": 6.16}
{"sequence": "CTTTTTTTTTTTTTTGCACACACATATATAAATATA [CACACA_site3950]", "gcPBM binding intensity (ln)": 10.6}
{"sequence": "AGTGGAAATTTTATTTGTACATAAATATTTACATAC [XGTACX_site633]", "gcPBM binding intensity (ln)": 6.2}
{"sequence": "ATTTTTTTTTAATGCAATATATTTTGAAAATTTTAT [CACACA_negctrl_site753]", "gcPBM binding intensity (ln)": 7.02}
{"sequence": "TTTTTTTTTTTTTTTACACACTTTATTCAAACAACT [CACACA_site4104]", "gcPBM binding intensity (ln)": 6.64}
{"sequence": "ATATATATATATATTTGTACTTAATTGATTTTACTT [XGTACX_site2663]", "gcPBM binding intensity (ln)": 9.1}
{"sequence": "ATGCGTTTAGCAAAAAGTACATATATATATAATATT [XGTACX_site1928]", "gcPBM binding intensity (ln)": 6.5}
{"sequence": "TTGAAATACTTTATTTGTACATATAGCAAAGTGTAT [XGTACX_site8782]", "gcPBM binding intensity (ln)": 6.5}
{"sequence": "ATTTTTTCTAGACATGCATGTGAAATTTACTTTTTT [TGCATGCA_site305]", "gcPBM binding intensity (ln)": 6.37}
{"sequence": "ATTATTGATTTATAAACACACACTCGAAGATGTTTA [CACACA_site8294]", "gcPBM binding intensity (ln)": 6.44}
{"sequence": "CTTTCTCTCAAAATGACATGCAATTTGTTTCTTTTT [TGCATGCA_site169]", "gcPBM binding intensity (ln)": 6.52}
{"sequence": "AATATGGAATGAAATAACAATCGGGAGTATATTACC [CACACA_negctrl_site93]", "gcPBM binding intensity (ln)": 6.85}
{"sequence": "TATATATATGTTCTTACACACACGAATATATATATG [CACACA_site3304]", "gcPBM binding intensity (ln)": 6.7}
{"sequence": "ACATATTGTAGATATTGTACATATTGTGTATATATT [XGTACX_site7620]", "gcPBM binding intensity (ln)": 6.8}
{"sequence": "TTGGCATACAGACACACACACACACCCCCACATATA [CACACA_site590]", "gcPBM binding intensity (ln)": 7.22}
{"sequence": "ATTGATACATCCAATACACACTACATATTATGATGT [CACACA_site6965]", "gcPBM binding intensity (ln)": 6.6}
{"sequence": "AATTTATTAAAAAAATGTACTTATTTTTTTGTATAA [XGTACX_site5844]", "gcPBM binding intensity (ln)": 6.09}
{"sequence": "TTTTTTTTTTTTTTTTTTTTTTTTTCATATTAATAT [GTGCAC_negctrl_site351]", "gcPBM binding intensity (ln)": 6.13}
{"sequence": "TTAATATTTTGATGTGTACACATTAAAATAGTTTTA [CACACA_site5712]", "gcPBM binding intensity (ln)": 6.36}
{"sequence": "TAAATATATATATGGTGTACCATTTTGGGTTAATAT [XGTACX_site2706]", "gcPBM binding intensity (ln)": 6.63}
{"sequence": "GGGAGGATATTTCACAGTACCCAGGAAATCTGCGGA [XGTACX_site2555]", "gcPBM binding intensity (ln)": 6.37}
{"sequence": "TATATTATTTTTTATTGTACTTAAAAATATTATTTG [XGTACX_site1443]", "gcPBM binding intensity (ln)": 6.16}
{"sequence": "TTAAATAGCTGTAATTGTACAAATAAATACATAAAT [XGTACX_site3097]", "gcPBM binding intensity (ln)": 6.69}
{"sequence": "TATAGTAATATTTGAAGTACAAAATTAAAATAAATA [XGTACX_site7634]", "gcPBM binding intensity (ln)": 6.29}
{"sequence": "TTATATAAGGTCTATATATAAATATTAATGATAAGG [TGCATGCA_negctrl_site354]", "gcPBM binding intensity (ln)": 6.58}
{"sequence": "TATAAATAATTATATTGTACTCTTTATATTTTTCTT [XGTACX_site5335]", "gcPBM binding intensity (ln)": 6.53}
{"sequence": "AGAAGTTTATCTTTTAGTACGCATAAAAAAAAAAAA [XGTACX_site2359]", "gcPBM binding intensity (ln)": 6.69}
{"sequence": "TTTTATGCTCAATTATTAAGAAATACTTTTTCTTCC [XGTACX_negctrl_site208]", "gcPBM binding intensity (ln)": 9.78}
{"sequence": "ATATTTTTTTTTCTTTCGCACACGTGAAAGAATTTC [CACACA_site8636]", "gcPBM binding intensity (ln)": 7.03}
{"sequence": "AAAATAAAAATTAACTGTACATACATTATTCAAATT [XGTACX_site6106]", "gcPBM binding intensity (ln)": 6.11}
{"sequence": "TACAAACAAACACATAGCAATATATGTTATCAAAAA [XGTACX_negctrl_site1]", "gcPBM binding intensity (ln)": 6.32}
{"sequence": "AAGGAAATAATTAAATGTACAAAAAAAAAAAAAATT [XGTACX_site562]", "gcPBM binding intensity (ln)": 6.27}
